According to PMC4336329 (PLoS ONE, 2015):
The campaign covered roughly 310,000 compounds. About 2,200 (0.71%) showed an effect of 50% or more. Effects have a minus sign here. The list shows a part of the results.

target: human ether-à-go-go-related gene (hERG) potassium channel (human, UniProt Q12809); assay: primary screen, population patch clamp on CHO cells stably expressing hERG
Sequence (Q12809 whole entry, looked up): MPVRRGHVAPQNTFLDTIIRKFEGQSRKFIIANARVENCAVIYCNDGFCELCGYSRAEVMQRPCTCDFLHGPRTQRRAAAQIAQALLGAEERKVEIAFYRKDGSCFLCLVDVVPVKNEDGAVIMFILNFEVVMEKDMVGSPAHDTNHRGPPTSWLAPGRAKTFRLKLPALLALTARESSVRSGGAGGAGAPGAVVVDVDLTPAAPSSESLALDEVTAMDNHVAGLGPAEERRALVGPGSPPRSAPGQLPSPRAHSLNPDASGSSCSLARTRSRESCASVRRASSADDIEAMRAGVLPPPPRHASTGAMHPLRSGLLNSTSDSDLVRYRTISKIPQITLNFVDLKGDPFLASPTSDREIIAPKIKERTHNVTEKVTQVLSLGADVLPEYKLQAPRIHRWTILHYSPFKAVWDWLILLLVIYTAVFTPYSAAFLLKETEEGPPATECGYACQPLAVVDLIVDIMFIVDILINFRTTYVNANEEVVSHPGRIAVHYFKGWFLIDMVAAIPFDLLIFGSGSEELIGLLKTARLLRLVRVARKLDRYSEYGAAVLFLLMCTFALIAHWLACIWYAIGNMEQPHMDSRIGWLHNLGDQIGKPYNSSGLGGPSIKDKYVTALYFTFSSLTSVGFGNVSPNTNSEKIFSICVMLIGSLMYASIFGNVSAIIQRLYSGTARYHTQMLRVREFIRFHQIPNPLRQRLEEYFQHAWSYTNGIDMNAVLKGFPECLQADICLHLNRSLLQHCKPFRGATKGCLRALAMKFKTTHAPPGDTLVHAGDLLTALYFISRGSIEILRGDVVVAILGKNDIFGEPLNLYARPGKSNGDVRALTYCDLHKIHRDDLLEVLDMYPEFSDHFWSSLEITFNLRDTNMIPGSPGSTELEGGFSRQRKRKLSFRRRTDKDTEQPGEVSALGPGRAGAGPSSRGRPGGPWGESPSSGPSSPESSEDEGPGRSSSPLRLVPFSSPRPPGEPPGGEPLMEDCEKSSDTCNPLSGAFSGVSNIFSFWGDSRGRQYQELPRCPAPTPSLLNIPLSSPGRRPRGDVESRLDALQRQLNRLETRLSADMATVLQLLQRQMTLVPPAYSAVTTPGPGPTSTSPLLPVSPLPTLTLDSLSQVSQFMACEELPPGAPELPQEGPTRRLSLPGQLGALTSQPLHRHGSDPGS

Structure (SMILES) | hERG current change (%, negative = inhibition) at 1uM
c1ccc(C2C3=C(Nc4ncnn42)c2ccccc2CCC3)cc1 (stereo not drawn) | 14.8%
CCCCC(CC(O)COCCC)C(=O)NN (stereo not drawn) | 11.3%
Cc1cccc(N(Cc2cc3ccc(C)cc3[nH]c2=O)C(=O)c2ccco2)c1 | 0.743%
CCCCc1cc(=O)oc2cc(C)cc(OCC(=O)N[C@@H](CSCc3ccccc3)C(=O)O)c12 | 13.8%
O=C(CC1C(=O)NCCN1Cc1ccc(Cl)c(F)c1)NC1CCC1 (stereo not drawn) | 14%
CC(=O)O[C@@]12CO[C@@H]1C[C@H](O)[C@@]1(C)C(=O)[C@H](O)C3=C(C)[C@@H](OC(=O)[C@H](O)[C@@H](NC(=O)c4ccccc4)c4ccccc4)C[C@@](O)([C@@H](OC(=O)c4ccccc4)C12)C3(C)C (stereo partly drawn) | -2.75%
CCC(CC)C(=O)Nc1nnc(SCC(=O)NC(C)(C)C)s1 | 10.7%
OC(COc1cccc2ccccc12)CN1CCN(c2ccccc2Cl)CC1 (stereo not drawn) | -8.1%
O=C(CSc1nc(O)cc(=O)n1-c1ccccc1)NCc1ccccc1 | 5.12%
Cc1ccc(NC(=O)c2cc([N+](=O)[O-])ccc2N2CCOCC2)cc1S(=O)(=O)N1CCOCC1 | -8.48%
Cc1ccnc(NC(=O)CCC(=O)N(CC(=O)NCc2ccc(F)cc2)CC2CCCO2)c1 (stereo not drawn) | 8.36%
CN(Cc1cn(C)c2ccccc12)C(=S)Nc1cc(F)cc(F)c1 | -8.94%
COc1ccc(CNCCc2ccccc2)cc1OCC(N)=O | -1.89%
CCOc1ccc(CN(C)c2nc(-c3cccnc3)nc3ccccc23)cc1OC | 12.3%
CCCCOC(=O)/C=C\C(=O)OCCCC | 14.7%
COc1cc(/C=C/C(=O)OCC(=O)c2c(N)n(C)c(=O)n(C)c2=O)ccc1OCC#N | 5.72%
O=c1c2ccccc2c(C=Nc2ccc(Cl)cn2)c(O)n1-c1cc(Cl)ccc1N1CCOCC1 | 6.33%
O=P(O)(Cc1ccccc1)Cc1ccccc1 | 15.8%
O=C(NCc1ccc(F)cc1)c1cc(S(=O)(=O)N2CCOCC2)ccc1F | -5.39%
COc1ccc(-c2cc3ccccc3n2CC(O)CNCCO)cc1.O=C(O)C(=O)O (stereo not drawn) | 10.2%
C/C(=N\NC(=O)c1cc(-c2ccc(C)s2)nc2ccccc12)c1cccnc1 | 3.29%
O=c1c2c3c(sc2nc2n1CCCC2)CCCCC3 | 7.25%
C=CCn1c2ccccc2c2nnc(SCCN3CCOCC3)nc21 | 14.8%
Cc1ccc(Cn2ncc3c(N4CCOCC4)ncnc32)cc1 | -4.1%
O=C1CC(N(O)C2CC(=O)N(Cc3ccccc3)C2=O)C(=O)N1Cc1ccccc1 (stereo not drawn) | -8.12%
COc1ccccc1/C=C/C(=O)c1c2c(c(C)[nH]c1=O)CCCC2 | 7.36%
CC(C)n1c(C(F)(F)F)nc2cc(C(=O)N3CCCCC3)ccc21 | 10%

Structure (SMILES) | hERG current change (%, negative = inhibition) at 1uM
Cc1cc(Cl)c(S(=O)(=O)NC2CCCC2)cc1OCC(N)=O | 11.5%
CCOC(=O)CC(NC(=O)c1cc2cc(Br)ccc2oc1=O)c1cccc([N+](=O)[O-])c1 (stereo not drawn) | 9.71%
CC(C)CNC(=O)CSc1nnc2ccccn12 | 5.44%
COc1ccc(C2CCCN2C(=S)Nc2c(C)cccc2C)cc1OC (stereo not drawn) | 9.38%
CN(C)CC#Cc1cncc(C(=O)NNC(=O)Nc2ccc(Cl)cc2)c1 | 9.93%
COc1c(C)cc(Br)cc1C(=O)Nc1ccc(S(N)(=O)=O)cc1 | 8.42%
CCc1ccc2[nH]c(=O)c(CN(Cc3ccc4c(c3)OCO4)C(=O)c3ccco3)cc2c1 | -4.28%
CSc1ccc(S(=O)(=O)NC2CC3CCC2C3)cc1 (stereo not drawn) | 18.2%
CC(C)(C)n1c(O)c2ccc(C(=O)N=NC(=O)c3ccccc3)cc2c1O | 7.88%
O=C(O)Cn1nnc2ccccc21 | -0.568%
COc1c2ccoc2c(OC(C)=O)c2oc(C)cc(=O)c12 | 25%
CN1C(=O)C(C)(C)c2cc(S(=O)(=O)N3CCC(C(=O)NCc4ccc(Cl)cc4)CC3)ccc21 | 7.44%
Cc1c(CC(=O)O)c(=O)oc2c(C)c(OCc3ccc(F)cc3F)ccc12 | 18.4%
CCCc1nnc(NC(=O)CCC(=O)N2CCN(Cc3ccc(Cl)cc3)CC2)s1 | 5.25%
CCn1c(=O)n(CC)c2cc(N3CCCC3)c(NC(=O)c3cc(Cl)ccc3OC)cc21 | 11.6%
CCC(C)NC(=O)C1(O)c2ccccc2NC(=O)N1c1ccc(C)c(C)c1 (stereo not drawn) | 16.7%
CCCCc1nnc(SCC(=O)Nc2nccs2)n1C | 11%
O=P(/C(=N/O)N1CCOCC1)(N1CCOCC1)N1CCOCC1 | 11%
O=C(NNC(=O)c1ccc2nc[nH]c2c1)c1ccccc1 | 13.2%
Br.CCn1c(-c2cc(OC)ccc2OC)csc1=Nc1c(C)n(C)n(-c2ccccc2)c1=O | 15.2%
O=C(NNc1nc2ccccc2s1)Nc1ccc(F)cc1 | 2.13%
CN(Cc1c(F)cccc1Cl)C(=O)C1CC(=O)N(CCc2ccccc2)C1 (stereo not drawn) | -4.62%
Cc1ccnc(NC(=O)CSc2cc(=O)n(C)c3ccccc23)c1 | 18.2%
COc1ccc(S(=O)(=O)N2CCOCC2)cc1NC(=O)CN1C(=O)NC2(CCCCC2C)C1=O (stereo not drawn) | 1.41%
COCCN(C(=O)CCC(=O)Nc1ccccn1)C(C(=O)NCCC(C)C)c1ccc(F)cc1 (stereo not drawn) | 8.74%
CC(=O)Nc1sc2c(c1C(c1ccccn1)N1CCN(C)CC1)CCCC2 (stereo not drawn) | 1.7%
COc1ccc(Cn2c(=O)cc(N)n(-c3ccccc3C)c2=O)cc1 | 16.1%
